# Laboratory results reported in paper PMC6904361, “Vitamin D Receptor Inhibits NLRP3 Activation by Impeding Its BRCC3-Mediated Deubiquitination” (Frontiers in Immunology, 2019).
# By UniProt entry, the sequences of proteins in these tests, tags left out.
# UniProt Q8R4B8: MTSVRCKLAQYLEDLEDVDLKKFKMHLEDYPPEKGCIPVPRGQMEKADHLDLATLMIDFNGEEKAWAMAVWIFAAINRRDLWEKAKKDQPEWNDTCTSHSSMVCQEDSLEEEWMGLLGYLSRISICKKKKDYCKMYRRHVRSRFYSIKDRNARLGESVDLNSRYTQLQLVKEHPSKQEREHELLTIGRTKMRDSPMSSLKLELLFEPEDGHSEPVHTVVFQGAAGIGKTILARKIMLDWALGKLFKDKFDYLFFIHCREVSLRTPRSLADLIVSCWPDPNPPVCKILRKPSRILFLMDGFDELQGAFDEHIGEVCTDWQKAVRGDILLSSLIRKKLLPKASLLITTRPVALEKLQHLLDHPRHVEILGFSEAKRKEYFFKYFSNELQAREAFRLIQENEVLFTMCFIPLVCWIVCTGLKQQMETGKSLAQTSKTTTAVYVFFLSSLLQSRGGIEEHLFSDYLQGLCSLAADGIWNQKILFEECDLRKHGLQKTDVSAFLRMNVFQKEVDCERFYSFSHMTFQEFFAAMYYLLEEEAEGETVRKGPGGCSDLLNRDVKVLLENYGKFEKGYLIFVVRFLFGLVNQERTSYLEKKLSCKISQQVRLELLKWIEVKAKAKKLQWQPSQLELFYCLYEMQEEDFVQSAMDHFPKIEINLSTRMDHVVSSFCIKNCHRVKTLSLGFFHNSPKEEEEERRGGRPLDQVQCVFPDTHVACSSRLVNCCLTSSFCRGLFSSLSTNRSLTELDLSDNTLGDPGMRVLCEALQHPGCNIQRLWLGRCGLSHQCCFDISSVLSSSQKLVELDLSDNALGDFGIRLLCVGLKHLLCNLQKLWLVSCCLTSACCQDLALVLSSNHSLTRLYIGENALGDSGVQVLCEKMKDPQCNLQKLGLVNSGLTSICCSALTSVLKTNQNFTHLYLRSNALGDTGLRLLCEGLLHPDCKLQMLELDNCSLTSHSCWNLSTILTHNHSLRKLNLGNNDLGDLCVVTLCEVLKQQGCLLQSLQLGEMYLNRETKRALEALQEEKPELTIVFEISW
# UniProt Q96P20: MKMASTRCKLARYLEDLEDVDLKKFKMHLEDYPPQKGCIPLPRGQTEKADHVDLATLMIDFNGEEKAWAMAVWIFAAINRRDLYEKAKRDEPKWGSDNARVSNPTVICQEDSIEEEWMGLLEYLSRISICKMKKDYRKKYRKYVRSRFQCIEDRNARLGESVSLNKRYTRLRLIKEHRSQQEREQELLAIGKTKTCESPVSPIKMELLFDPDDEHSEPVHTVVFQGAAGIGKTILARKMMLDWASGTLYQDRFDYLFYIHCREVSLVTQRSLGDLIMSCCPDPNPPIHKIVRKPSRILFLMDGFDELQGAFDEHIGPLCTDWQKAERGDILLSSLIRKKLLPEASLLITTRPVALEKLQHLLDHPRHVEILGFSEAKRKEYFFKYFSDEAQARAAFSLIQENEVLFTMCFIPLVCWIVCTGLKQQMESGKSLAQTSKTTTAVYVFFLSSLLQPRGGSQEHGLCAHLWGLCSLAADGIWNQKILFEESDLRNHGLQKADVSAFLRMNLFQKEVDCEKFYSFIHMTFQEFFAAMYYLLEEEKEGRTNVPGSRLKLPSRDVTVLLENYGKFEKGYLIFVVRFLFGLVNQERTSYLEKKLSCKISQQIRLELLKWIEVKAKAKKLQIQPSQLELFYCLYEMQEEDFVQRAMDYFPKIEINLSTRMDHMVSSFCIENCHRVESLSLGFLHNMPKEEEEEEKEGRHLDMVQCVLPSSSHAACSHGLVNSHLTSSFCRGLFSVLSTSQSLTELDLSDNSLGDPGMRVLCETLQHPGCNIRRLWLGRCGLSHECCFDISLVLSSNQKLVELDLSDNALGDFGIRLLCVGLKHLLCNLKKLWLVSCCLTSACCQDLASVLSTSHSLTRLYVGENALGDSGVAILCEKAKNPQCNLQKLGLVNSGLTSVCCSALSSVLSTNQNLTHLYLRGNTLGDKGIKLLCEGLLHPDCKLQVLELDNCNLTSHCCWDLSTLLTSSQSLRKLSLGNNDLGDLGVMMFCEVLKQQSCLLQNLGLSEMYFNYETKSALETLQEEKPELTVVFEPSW
# UniProt P29466: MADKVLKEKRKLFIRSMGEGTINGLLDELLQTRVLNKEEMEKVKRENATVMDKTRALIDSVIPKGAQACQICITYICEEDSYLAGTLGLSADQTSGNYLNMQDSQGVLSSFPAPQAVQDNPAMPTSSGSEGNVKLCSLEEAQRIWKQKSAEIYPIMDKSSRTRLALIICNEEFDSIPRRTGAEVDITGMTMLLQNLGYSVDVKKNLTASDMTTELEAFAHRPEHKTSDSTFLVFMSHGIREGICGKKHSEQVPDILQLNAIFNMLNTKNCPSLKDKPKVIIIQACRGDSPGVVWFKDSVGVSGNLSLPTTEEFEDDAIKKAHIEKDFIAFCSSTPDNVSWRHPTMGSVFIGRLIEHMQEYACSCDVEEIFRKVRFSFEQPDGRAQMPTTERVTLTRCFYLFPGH
# UniProt Q9ULZ3: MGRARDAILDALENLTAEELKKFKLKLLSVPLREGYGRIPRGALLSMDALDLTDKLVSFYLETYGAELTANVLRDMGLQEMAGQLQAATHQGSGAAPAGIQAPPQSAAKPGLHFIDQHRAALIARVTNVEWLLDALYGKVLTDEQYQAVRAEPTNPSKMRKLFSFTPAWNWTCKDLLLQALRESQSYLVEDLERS
# UniProt P46737: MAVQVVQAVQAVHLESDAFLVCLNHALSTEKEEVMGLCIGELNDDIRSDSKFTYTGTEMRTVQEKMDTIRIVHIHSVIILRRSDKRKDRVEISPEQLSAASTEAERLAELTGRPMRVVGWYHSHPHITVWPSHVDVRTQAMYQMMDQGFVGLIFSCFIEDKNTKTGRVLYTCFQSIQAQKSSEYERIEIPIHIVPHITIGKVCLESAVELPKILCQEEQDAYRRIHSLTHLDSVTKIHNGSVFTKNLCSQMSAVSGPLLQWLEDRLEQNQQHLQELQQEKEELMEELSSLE
# UniProt P46736: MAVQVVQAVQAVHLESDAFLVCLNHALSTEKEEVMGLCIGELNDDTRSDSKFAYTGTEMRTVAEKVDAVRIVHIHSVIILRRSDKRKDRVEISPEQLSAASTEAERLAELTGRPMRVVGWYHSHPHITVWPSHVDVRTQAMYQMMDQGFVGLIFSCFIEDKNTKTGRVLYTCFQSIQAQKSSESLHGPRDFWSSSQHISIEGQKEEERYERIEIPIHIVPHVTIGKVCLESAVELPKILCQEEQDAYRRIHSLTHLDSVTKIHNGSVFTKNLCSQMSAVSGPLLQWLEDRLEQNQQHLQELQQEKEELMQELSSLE
# Read-outs that look alike come from different tables or passages of the source. No constants are given. Whether binding was seen depends on the method and setting. In cells and extracts the contact can be indirect. Some results given as binding are weak or reduced against the parent protein; the word gives no strength. For some of these results: Where a sequence is shown, tags or fusion partners need not be part of it.
# Key:
# [1] = target: NLRP3, endogenous in mouse BMDMs (mouse (endogenous in BMDMs)) (UniProt Q8R4B8); experiment: co-IP; endogenous proteins in mouse BMDM lysates; LPS-primed, unstimulated or nigericin 30 min (Figure 1C); mock or LPS-primed WT and Vdr-/- BMDMs, anti-NLRP3 IP (Figure 4B); RIPA buffer, Protein A/G-Agarose, immunoblot
# [2] = target: Flag-NLRP3 (UniProt Q96P20); experiment: co-IP; HEK293T cells transiently co-transfected; RIPA lysis buffer (50 mM Tris pH 7.4, 150 mM NaCl, 1% NP-40, 0.25% sodium deoxycholate); antibody overnight, Protein A/G-Agarose; immunoblot; with or without co-expressed VDR or VDR-LBD in Figures 4C,D (anti-Flag IP)
# [3] = target: Myc-tagged wild-type NLRP3 (UniProt Q96P20); experiment: as above
# [4] = target: pro-caspase-1 (UniProt P29466); experiment: as above
# [5] = target: Flag-NLRP3 (UniProt Q96P20); experiment: as above; remark: listed apart in the source
# [6] = target: ASC (UniProt Q9ULZ3); experiment: as above
# [7] = target: NLRP3, endogenous in mouse BMDMs (mouse (endogenous in BMDMs)) (UniProt Q8R4B8); experiment: co-IP; endogenous proteins in mouse BMDM lysates; LPS-primed, unstimulated or nigericin 30 min (Figure 1C); mock or LPS-primed WT and Vdr-/- BMDMs, anti-NLRP3 IP (Figure 4B); RIPA buffer, Protein A/G-Agarose, immunoblot; remark: listed apart in the source
molecule,measurement,setting,value
"BRCC3, endogenous in mouse BMDMs (from UniProt P46737 1-291) (enzyme)",binding,[1],binds
HA-BRCC3 (from UniProt P46736 1-316) (enzyme),binding,[2],binds
"GST-human VDR (natural protein, UniProt P11473 1-427, looked up, human vitamin D receptor in pGEX-6P1; also called GST-VDR; pGEX6p-1-GST-VDR; source: E. coli BL21(DE3), IPTG-induced; called purified in the legend) MEAMAASTSLPDPGDFDRNVPRICGVCGDRATGFHFNAMTCEGCKGFFRRSMKRKALFTCPFNGDCRITKDNRRHCQACRLKRCVDIGMMKEFILTDEEVQRKREMILKRKEEEALKDSLRPKLSEEQQRIIAILLDAHHKTYDPTYSDFCQFRPPVRVNDGGGSHPSRPNSRHTPSFSGDSSSSCSDHCITSSDMMDSSSFSNLDLSEEDSDDPSVTLELSQLSMLPHLADLVSYSIQKVIGFAKMIPGFRDLTSEDQIVLLKSSAIEVIMLRSNESFTMDDMSWTCGNQDYKYRVSDVTKAGHSLELIEPLIKFQVGLKKLNLHEEEHVLLMAICIVSPDRPGVQDAALIEAIQDRLSNTLQTYIRCRHPPPGSHLLYAKMIQKLADLRSLNEEHSKQYRCLSFQPECSMKLTPLVLEVFGNEIS",binding,[3],binds
same,binding,[4],no binding
same,binding,[5],binds
same,binding,[6],no binding
"VDR, endogenous in mouse BMDMs (protein, UniProt P48281 1-422) MEAMAASTSLPDPGDFDRNVPRICGVCGDRATGFHFNAMTCEGCKGFFRRSMKRKALFTCPFNGDCRITKDNRRHCQACRLKRCVDIGMMKEFILTDEEVQRKREMIMKRKEEEALKDSLRPKLSEEQQHIIAILLDAHHKTYDPTYADFRDFRPPIRADVSTGSYSPRPTLSFSGDSSSNSDLYTPSLDMMEPASFSTMDLNEEGSDDPSVTLDLSPLSMLPHLADLVSYSIQKVIGFAKMIPGFRDLTSDDQIVLLKSSAIEVIMLRSNQSFTLDDMSWDCGSQDYKYDITDVSRAGHTLELIEPLIKFQVGLKKLNLHEEEHVLLMAICIVSPDRPGVQDAKLVEAIQDRLSNTLQTYIRCRHPPPGSHQLYAKMIQKLADLRSLNEEHSKQYRSLSFQPENSMKLTPLVLEVFGNEIS",binding,[7],binds
